In PubChem BioAssay AID1508624 (National Center for Advancing Translational Sciences (NCATS), 2021):
Among all 48,000 compounds or so, about 120 (0.25%) were called active. Inconclusive results (about 4%) are left out. Calls follow the shape of the dose curve; as a rule, active = well fitted activation curve with a large enough effect; inconclusive = small, poorly fitted or top-dose-only effect, or another doubt; inactive = no such curve, though single readings can be large or run the other way. The list shows a part of the results.

Test: Primary qHTS for Identification of Small Molecule Activators of Huntingtin-Antisense Promoter Activity; also: nearly all actives have a fitted effect of over 55% in size
Conditions: HEK293 HTT-AS promoter firefly luciferase reporter, 24 h; series mostly up to 57.5 µM; activity change, positive = activation: at the top concentration
Summary of the method: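 Firefly luciferase signal from promoter-reporter HEK293 cells was scaled between vehicle (0%) and zero RLU (-100%). Compounds were tested at final concentrations of up to 57.5 uM over 24 h at 37 degrees C. PTC124 at 50 uM final served as control inhibitor.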

Activity change, positive = activation, inactive:
COC(=O)CCN(C(=O)c1c(C)oc2ncnc(N3CCOCC3)c12)c1ccccc1 -3.25%
Cc1cccc(N2CCN(C(=O)C3CCN(S(=O)(=O)c4ccc5c(c4)oc(=O)n5C)CC3)CC2)c1C -42.6%
Cc1cc(C)c2oc(C(=O)Nc3ccc(S(=O)(=O)N(C)c4ccccc4)cc3)cc(=O)c2c1 7.43%
O=c1c2c3c(sc2n(Cc2cc(=O)n4ccccc4n2)c(=O)n1-c1ccc(Cl)cc1)CCC3 0.459%
O=c1ncn2nc(Sc3ccc(F)cc3F)ccc2c1-c1c(Cl)cccc1Cl -14.2%
Cc1coc2cc3oc(=O)c(CC(=O)NCc4ccccc4)c(C)c3cc12 -16.8%
CC(C)(C)c1ccc(S(=O)(=O)Nc2ccc(O)c(Sc3nc4ccccc4s3)c2)cc1 -36.3%
CC(=O)N1CCCc2cc(S(=O)(=O)N3CCCC(C(=O)Nc4ccc(C)c(C)c4)C3)ccc21 (centres undefined) -19.4%
COc1cccc(-c2cnc(NCc3ccccc3Cl)n2C)c1 2.42%
C[C@]12C=CC(=O)C=C1CC[C@@H]1[C@@H]2[C@@H](O)C[C@@]2(C)[C@H]1CC[C@]2(O)C(=O)CO -9.99%
Cc1ccc(C(=O)Nc2ccc3oc(-c4cccnc4)nc3c2)c(Cl)c1 1.98% [at 11.5 µM, percent change from vehicle, -100% = no light]
CCOc1ccccc1NC(=O)c1cc(S(=O)(=O)NC2CCCC2)ccc1F -32.2%
CCOc1ccc2nc(N3CCC(C(=O)Nc4c(C)cccc4C)CC3)sc2c1 19.9%
Cc1ccc(C)c(N2CCN(C(=O)c3cc4c(=O)n(Cc5cccs5)ccc4nc3C)CC2)c1 -30.6%
Cc1ccc(S(=O)(=O)Nc2cc3c(cc2Cl)n(C)c(=O)c(=O)n3C)cc1 -12.8%
COc1cc(NC(=O)N2CCN(c3cc(-c4noc(C)n4)ccc3C)CC2)cc(OC)c1OC -25.4%
Cc1ccc(NC(=O)/C(C#N)=C\c2ccc(Cl)cc2Cl)cc1C 0.908%
COc1ccc2c(c1)c1c(c(=O)n(CCc3ccccc3)c(=O)n1Cc1ccc(Cl)cc1)n2C -10.7%
CCOc1ccccc1NC(=O)N1CCN(S(=O)(=O)c2ccc3c(ccn3C)c2)CC1 -22.4%
CCN(c1ccc(C)cc1)S(=O)(=O)c1nnc(NC(=O)c2cccs2)s1 -33.7%
Cc1ccc(-c2ccc(CCC(=O)O)n2-c2ccc(C(C)C)cc2)cc1 -0.93%
Nc1c(-c2nc(-c3ccccc3)no2)nnn1CC(=O)Nc1ccccc1 4.15%
COc1ccccc1CNC(=O)Cn1ncc2c(C)n(Cc3ccccc3Cl)c(C)c2c1=O -12.7%
CCN(CC)CCNC(=O)c1cc2c(=O)[nH]c3ccc(C)cc3c2s1 -11.5%
